According to PubChem BioAssay (Tox21):
Several values for one entry are separate records, joined by “and”; a condition that tells them apart may be missing. Equal entries are not always repeated. Inconclusive results, whose numbers are uncertain, are shown with a selection of clear calls. A potency beside an inconclusive call is a rough fit, not a confirmed value. Activity calls are given as the source filed them. Unless noted, calls follow the shape of the dose curve; as a rule, active = well fitted cell-killing curve with a large enough effect in the repeat runs; inconclusive = weak or mixed curves, or effect the other way; inactive = no such curve, though single readings can be large or run the other way.

Target: Peroxisome proliferator-activated receptor gamma (Homo sapiens) (UniProt P37231)
Assay: qHTS assay to identify small molecule antagonists of the peroxisome proliferator-activated receptor gamma (PPARg) signaling pathway (AID 743191; calls by dose curve; also: nearly all actives have a fitted effect of over 30% in size; as to ratio activity, negative = inhibition: % is scaled to controls: 0 for no effect and ±100 for the full control effect)
Details: HEK293H PPARg-UAS-bla, beta-lactamase ratio, antagonist, 17 h; ratio activity, negative = inhibition: at 62.6 µM (top of the series) unless noted
Summary of the method: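 Beta-lactamase reporter under UAS control in HEK293H PPARg-bla cells; compound treatment 17 h at 37C. Read-out: fluorescence intensity after 1 h room-temperature incubation with LiveBLAzer B/G FRET substrate.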
Potency is read from the fitted curve at half-maximal effect; tags tell the direction and shape of the fitted curve or compound fluorescence and quenching.

Sequence of UniProt P37231 (P37231 whole entry, looked up): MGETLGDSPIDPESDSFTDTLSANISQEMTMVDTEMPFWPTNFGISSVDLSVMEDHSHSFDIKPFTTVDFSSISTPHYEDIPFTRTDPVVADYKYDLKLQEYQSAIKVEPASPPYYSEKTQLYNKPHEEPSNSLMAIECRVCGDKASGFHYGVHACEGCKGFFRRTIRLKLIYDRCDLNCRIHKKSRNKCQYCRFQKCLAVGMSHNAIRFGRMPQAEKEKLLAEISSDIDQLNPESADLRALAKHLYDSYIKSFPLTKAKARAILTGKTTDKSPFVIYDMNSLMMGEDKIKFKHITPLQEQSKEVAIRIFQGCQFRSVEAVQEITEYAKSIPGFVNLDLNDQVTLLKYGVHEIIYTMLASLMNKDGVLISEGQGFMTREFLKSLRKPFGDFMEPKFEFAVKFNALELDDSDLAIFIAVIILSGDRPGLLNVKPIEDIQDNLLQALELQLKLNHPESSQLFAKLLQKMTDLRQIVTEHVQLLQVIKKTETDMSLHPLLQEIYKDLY

| SMILES | Potency | ratio activity, negative = inhibition |
| --- | --- | --- |
| CN(C)C(=O)C1(N2CCCCC2)CCN(CC[C@@]2(c3ccc(Cl)c(Cl)c3)CN(C(=O)c3ccccc3)CCO2)CC1 | inconclusive: 25.7 µM [inhibitor, partial curve] |  |
| CCCCCCCCCCCCCC[P+](CCCC)(CCCC)CCCC (tested in a mixture with another compound) | inconclusive: 24.7 µM [cytotoxic, full curve] |  |
| [Cl][Bi]([Cl])([c]1ccccc1)([c]1ccccc1)[c]1ccccc1 | inconclusive: 2.44 µM [rising, partial curve] |  |
| C[C@@H](NCCCc1cccc(C(F)(F)F)c1)c1cccc2ccccc12 | inconclusive: 33.5 µM [inhibitor] |  |
| CCCCCCCCCCCCCCCCCC[N+](C)(C)C | inconclusive: 61.9 µM [cytotoxic, single point] |  |
| CCN(CC)C(=S)SSC(=S)N(CC)CC |  | inconclusive: 33.5% [activator] |
| CC(O)(c1ccc(Cl)cc1)c1ccc(Cl)cc1 | inconclusive: 61.6 µM [rising, partial curve, poor fit] |  |
| Cc1cc(F)ccc1-c1cc(N2CC[C@@H](O)[C@H]2CO)ncc1N(C)C(=O)C(C)(C)c1cc(C(F)(F)F)cc(C(F)(F)F)c1 |  | inconclusive: -18.5% |
| C[C@]12CC[C@@H]3c4ccc(O)cc4CC[C@H]3[C@@H]1CC[C@@H]2OC(=O)CCC1CCCC1 | inconclusive: 34.7 µM [inhibitor, partial curve] |  |

Test system: not listed separately
Assay: qHTS assay to identify small molecule antagonists of the peroxisome proliferator-activated receptor gamma (PPARg) signaling pathway - cell viability counter screen (AID 743194); also: nearly all actives have a fitted effect of over 55% in size
Details: PPARg-bla HEK293H viability, CellTiter-Glo luminescence, 17 h, co-treated with 50 nM rosiglitazone; activity change, negative = cytotoxicity: at 62.6 µM (top of the series) unless noted
Summary of the method: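 Viability was measured as CellTiter-Glo luminescence in GeneBLAzer PPARg UAS-bla HEK293H cells. These cells had been exposed 17 h at 37 C to compounds together with rosiglitazone at 50 nM final, with the beta-lactamase readout taken in the same wells.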

| SMILES | Potency |
| --- | --- |
| CCCCCC(=O)O[C@]1(C(C)=O)CC[C@H]2[C@@H]3CCC4=CC(=O)CC[C@]4(C)[C@H]3CC[C@@]21C | inconclusive: 34.4 µM [cytotoxic] and inconclusive: 33.5 µM [cytotoxic, single point] |
| CCc1cc(Cc2cc(CC)cc(C(C)(C)C)c2O)c(O)c(C(C)(C)C)c1 | active: 6.92 µM |
| O=C(CCCCCCCCc1cccnc1)N1CCC(C=C(c2ccccc2)c2ccccc2)CC1 | active: 19.5 µM |
| CN(C)c1ccc(SC#N)cc1 | inconclusive: 61.6 µM [cytotoxic, single point] |
| CCCCCCCCCCCCc1ccc(O)cc1 | active: 19.5 µM |
| CCCCCCCCCOC(=O)c1ccc(O)cc1 | inconclusive: 54.2 µM [cytotoxic, partial curve, poor fit] |
| CCC(C)(C)c1ccc(CC(C)CN2C[C@@H](C)O[C@@H](C)C2)cc1 (stereo partly drawn) | inconclusive: 33.5 µM [cytotoxic, single point] |
| Oc1c(Cl)cc(Cl)c2cccnc12 | inconclusive: 6.68 µM [cytotoxic, full curve] |
| Clc1nc(C(Cl)(Cl)Cl)c(Cl)c(Cl)c1Cl | active: 38.9 µM |
| CC(=O)c1ccc(S(=O)(=O)NC(=O)NC2CCCCC2)cc1 | inconclusive: 0.434 µM [rising, full curve, poor fit] |
| CC(C)(C)c1ccc(O)c(O)c1 | inconclusive: 0.195 µM [rising, partial curve, poor fit] |
| C=CC(=O)OCCOCCOCCOCCOC(=O)C=C | inconclusive: 21.7 µM [cytotoxic, partial curve, poor fit] |
| CN[C@H]1CC[C@@H](c2ccc(Cl)c(Cl)c2)c2ccc(S(N)(=O)=O)cc21 | active: 49 µM |
| O=c1n(CC2CO2)c(=O)n(CC2CO2)c(=O)n1CC1CO1 (stereo not drawn) | inconclusive: 38.7 µM [cytotoxic, partial curve, poor fit] |
| C[C@H]1O[C@@H](O[C@H]2CC[C@@]3(C)[C@H](CC[C@@H]4[C@@H]3C[C@@H](O)[C@]3(C)[C@@H](C5=CC(=O)OC5)CC[C@]43O)C2)C[C@H](O)[C@@H]1O[C@H]1C[C@H](O)[C@H](O[C@H]2C[C@H](O)[C@H](O[C@@H]3O[C@H](CO)[C@@H](O)[C@H](O)[C@H]3O)[C@@H](C)O2)[C@@H](C)O1 | active: 0.15 µM |
| CCC(C)(C)c1cc(O)c(C(C)(C)CC)cc1O | active: 21.9 µM |
| COc1cc(-c2nc(NC(=O)c3cc4cc(C)cc(C)c4n3CC(=O)O)sc2CCC2CCCCC2)c(OC)cc1Cl | active: 8.96 µM |
| CCCCC(CC)CN=C(N)NC(N)=NCCCCCCN=C(N)NC(N)=NCC(CC)CCCC (stereo not drawn) | active: 11.9 µM |
| Cc1ccc(-c2cc(C(F)(F)F)nn2-c2ccc(S(N)(=O)=O)cc2)cc1 | inconclusive: 61.4 µM [cytotoxic] and inconclusive: 61.6 µM [cytotoxic, single point] |
